# Experimental data as given in PubChem BioAssay AID1347073 (National Center for Advancing Translational Sciences (NCATS), 2019).
# The whole screen tested about 45,000 compounds, of which about 200 (0.44%) were called active. Not shown: some 7% with an inconclusive outcome. Calls come from the whole dose curve; as a rule, active = well fitted activation curve with a large enough effect; inconclusive = small, poorly fitted or top-dose-only effect; inactive = no such curve, though single readings can be large or run the other way. The list shows a part of the results.
# Experiment: qHTS of TDP-43 Inhibitors: NCGC Sytravon Library Screen; note: nearly all actives have a fitted effect of over 55% in size; for growth rescue (activation): 0% is about no effect
# Details: yeast TDP-43 toxicity rescue, BacTiter-Glo growth, 24 h; series mostly up to 46.1 µM; growth rescue (activation): at the top concentration
# Procedure, shortened: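 TDP-43-expressing yeast, pregrown in raffinose, seeded at OD600 0.02 in galactose medium with compound for 24 hr at 30 deg C. Growth read by BacTiter-Glo luminescence, so rescue of toxicity appears as activation.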
# Potency is the fitted concentration of half-maximal effect.
SMILES,growth rescue (activation),Potency
Nc1c(C(=O)N2CCOCC2)sc2nc3c(cc12)CCCC3,inactive: 4.41%,
COc1ccc(NC(=O)CNC(=O)Cn2ccc3ccccc3c2=O)c(OC)c1,inactive: -6.44%,
CC1CC[C@@]2(OC1)O[C@H]1CC3[C@@H]4C[C@@H](O)[C@@]5(O)C[C@@H](O)[C@H](O)C[C@]5(C)[C@H]4CC[C@]3(C)[C@H]1[C@@H]2C (some centres not stated),inactive: 0.474%,
COc1ccc(NC(=O)Nc2ccc(Cc3ccncc3)cc2)c(OC)c1,inactive: -17.5%,
Cc1ccccc1CSc1nc(C(C)(C)C)cc(=O)[nH]1,inactive: 3.13%,
COc1ccc(OC)c2[nH]c(=O)c(CCNS(=O)(=O)c3ccc(F)cc3)cc12,inactive: -16%,
CC(C)CC(=O)N1CCN(c2ccc(NC(=O)c3ccco3)cc2)CC1,inactive: 8.54%,
O=C(O)Cc1ccc(NC(=O)c2ccc(Cl)c(Cl)c2)cc1,inactive: -10.3%,
OCC1(Cc2ccccc2)CCN(Cc2cc3ccccc3o2)CC1,inactive: 3.52%,
CCOC(=O)/C(N=Nc1ccc(Cl)cc1)=C(/O)c1ccc([N+](=O)[O-])cc1,inactive: 19.1%,
CC1CN(C(=O)COC(=O)c2cc3ccccc3cc2O)CC(C)O1 (configuration not stated),inactive: 4.63%,
CCN1C(=O)/C(=C/c2ccc(N3CCCC3)cc2)NC1=S,inactive: 28.9%,
NC(=O)COC(=O)c1ccc2c(c1)C(=O)N(Cc1ccco1)C2=O,inactive: 18.3%,
COc1ccc(CC(CC(=O)O)C(=O)NCc2ccccc2)cc1 (configuration not stated),inactive: -0.655%,
O=C(O)C12C[C@H]3C[C@@H](C1)CC(n1ncc(N4CCN(c5ccccc5)CC4)c(Cl)c1=O)(C3)C2,inactive: 12.5%,
CCOC(=O)C1C(=O)OC(C)(C)C1C(C)C(=O)c1ccc(C)cc1C (configuration not stated),inactive: 1.15%,
Cc1cc2ccccn2c1C(=O)c1ccccc1F,inactive: 25.4%,
CCn1c(CC(=O)Nc2ccc(F)cc2)nnc1SCC(=O)Nc1nncs1,inactive: -4.35%,
COC(=O)[C@@H](NC(=O)c1cc(COc2cncc(Cl)c2)on1)c1ccccc1,inactive: 20.5%,
O=C(CSC1CC(=O)N(c2ccc(C(=O)O)cc2)C1=O)Nc1ccc(Cl)cc1 (configuration not stated),inactive: -0.0087%,
COC(=O)c1ccc(C(=O)OC)c(NC(=O)C(C)C)c1,inactive: 13.8%,
O=C(O)c1ccc(-n2c(=O)c3ccccc3c3ccccc3c2=O)cc1,inactive: 5.96%,

SMILES,growth rescue (activation),Potency
CC(Nc1ccccc1)c1ccncc1 (configuration not stated),inactive: 2.8%,
COc1ccc(C2c3ccc(O)cc3Oc3ncn4nc(-c5ccncc5)nc4c32)cc1OC (configuration not stated),inactive: 7.74%,
Cc1cc(C)n(C(=O)CCNC(=O)c2ccccc2Br)n1,inactive: 22.8%,
Cc1ccc(-c2csc3ncn(CC#N)c(=O)c23)cc1C,inactive: 27.1%,
CCN(CC)S(=O)(=O)c1ccc(NC(=O)c2cc(-c3cccs3)nc3ccccc23)cc1,inactive: 10.4%,
C/C(=N\NC(=O)CSc1nc(C)[nH]c1[N+](=O)[O-])c1ccc(F)cc1,inactive: 2.81%,
CN(c1ccc(OCC(=O)N2CCN(c3ccc(F)cc3)CC2)cc1)S(=O)(=O)c1cccs1,inactive: 20.4%,
CCNC(=O)C1(C)CCN(C(=O)c2ccc(C(=O)OC)cc2)C1 (configuration not stated),inactive: 6%,
CCOc1cc(N2CCOCC2)c(OCC)cc1NC(=O)CSc1nccc(C)n1,inactive: 13.3%,
Cc1ccc(/C=N/NC(=O)c2cc(-c3ccc(C)o3)[nH]n2)cc1,inactive: 18.9%,
COC(=O)C1=C(C)NC(=O)/C1=C\c1cc(C)n(-c2ccccc2)c1C,inactive: 4.92%,
C=CCN(CC=C)Cc1cc(=O)n2c(-c3ccccc3)csc2n1,inactive: 3.95%,
O=[N+]([O-])c1cccc2ccc(/C=C/c3ccc(C(F)(F)F)cc3)nc12,inactive: 12.8%,
O=C(COc1ccc2ccccc2c1)NNC(=O)Cc1ccccc1,inactive: 24.6%,
COc1ccc(C(=O)COC(=O)c2ccc(N(C)C)cc2)cc1,inactive: -0.261%,
Cc1cccn2c(=O)c3cc(C(=O)NCc4ccco4)c(=N)n(C4CCCC4)c3nc12,inactive: -13.3%,
[O-]/C(=C(\C(=S)NCCN1CCOCC1)[n+]1ccccc1)c1ccc(Cl)s1,inactive: 14%,
COc1cccc(/C=N/Nc2cc(N3CCOCC3)ncn2)c1O,inactive: 13.5%,
CCCCNC(=O)OCCNC(=O)Oc1cccc(C)c1,inactive: -3.84%,
CN(CCn1ccnc1)C(=O)CC1C(=O)NCCN1Cc1ccccc1C(F)(F)F (configuration not stated),inactive: 9.84%,
CC(C)c1ccc(C(=O)Nc2ccc(N3CCOCC3)cc2)cc1,inactive: 23.7%,
COc1ccc(NC(=O)C(C)SCc2ccccc2)cc1 (configuration not stated),inactive: 33.9%,

SMILES,growth rescue (activation),Potency
O=C(CCCc1cccs1)Nc1nccs1,inactive: 1.04%,
CN(C)c1ccc(/C=C/C(=O)c2cccnc2)cc1,inactive: -2.62%,
COc1ccc(CC(=O)NC(C)C2COc3ccccc3O2)cc1OC (configuration not stated),inactive: -12.8%,
C/C=C/c1ccc(OCCOCCOc2cccc3cccnc23)c(OC)c1,inactive: 12.7%,
CCC(C)(C)n1nnnc1C(c1ccccc1)N1CCN(Cc2ccccc2)CC1 (configuration not stated),inactive: 11.3%,
CC(C)(C)c1nnc(NS(=O)(=O)c2ccc(F)cc2)s1,inactive: -4.87%,
COc1ccc2c(c1)c1c3n2CCN(C)C3=NCC1,inactive: -1.37%,
Cc1ccccc1OCCC(=O)OCC(=O)NC(C)c1ccccc1 (configuration not stated),inactive: 6.67%,
COc1ccc(NC(=O)C2(C)Cc3c(-c4cccc(C(N)=O)c4)ccnc3O2)cc1OC (configuration not stated),inactive: -1.52%,
CN1CCC(N(C)C(=O)Cc2ccccc2[N+](=O)[O-])CC1,inactive: -1.72%,
Cc1nnc(NC(=O)CCC(=O)N2CCN(S(=O)(=O)c3cc([N+](=O)[O-])ccc3C)CC2)s1,inactive: 16.2%,
C=CCOc1c(Cl)cc(CNCCCN2CCOCC2)cc1OC,inactive: -0.685%,
O=C(Nc1ccccc1)NN(C(=O)CCl)c1ccccc1,inactive: 10.4%,
Cc1ccc(OCC(=O)NNc2c3ccccc3nc3ccccc23)cc1,inactive: 3.61%,
Cc1ccc2c(Cl)cc(Cl)c(OCC(=O)Nc3cc(S(=O)(=O)N(C)C)ccc3C)c2n1,inactive: -3.19%,
CC(C)c1ccc(/C=C2\NC(=S)N(Cc3cccnc3)C2=O)cc1,inactive: 8.73%,
Cc1ccc2nc(NCCC(=O)O)nc(-c3ccccc3)c2c1,inactive: 4%,
Cc1ccccc1-c1nnc(CS(=O)(=O)c2ccccc2)o1,inactive: 24.1%,
Cc1ccc(S(=O)(=O)N(Cc2ccc(Cl)cc2)c2ccccc2C(=O)NCc2cccnc2)cc1,inactive: 18.2%,
CC1=CC(c2ccccc2)NC(=S)N1 (configuration not stated),inactive: 23.3%,
CNc1cccc(-c2cc(OC)ccc2OC)n1,inactive: -2.01%,
CCOC(=O)C1(Cc2ccc(Cl)cc2)CCN(C(=O)CCc2ccncc2)CC1,inactive: 5.81%,

SMILES,growth rescue (activation),Potency
COc1ccc(N(CCC#N)C(=O)/C(C#N)=C/c2cccs2)cc1,inactive: 7.94%,
COc1ccc(CN(CC(=O)NCC2CCCO2)C(=O)CCC(=O)Nc2nccs2)cc1 (configuration not stated),inactive: 3.78%,
O=C(C1CC1)N1CCc2cc(Br)c(S(=O)(=O)N3CCCCCC3)cc21,inactive: -2.24%,
Cc1ccc(C(=O)COC(=O)CN2C(=O)C3C4CC(C(Br)C4Br)C3C2=O)cc1 (configuration not stated),inactive: -9.78%,
CC1CCc2nc3ccc(S(=O)(=O)N4CCC(C(=O)NCc5ccccc5Cl)CC4)cc3c(C(=O)O)c2C1 (configuration not stated),inactive: 5.5%,
Cn1c(=O)c2c(ncn2CC(=O)OCCCC(=O)c2ccc(Br)cc2)n(C)c1=O,inactive: 9.93%,
O=C(NC(C(=O)N/N=C/c1ccccc1)c1n[nH]c(=O)c2ccccc12)c1ccccc1 (configuration not stated),inactive: 28.6%,
COc1ccc(NC(=O)c2cc(S(=O)(=O)N(C)C)ccc2N2CCCC2)cc1Cl,inactive: 19%,
Cc1cc(CNCc2cn(C)nc2-c2ccc(Oc3ccccc3)cc2)on1,inactive: -1.25%,
CC(C)N1C(=O)CCN(C=O)c2ccccc21,inactive: -4.86%,
CCNC(=S)N1CCN(c2cccc(C(F)(F)F)c2)CC1,inactive: 18.4%,
CCc1ccc(S(=O)(=O)/N=C2\C=C(Nc3ccc(O)cc3)C(=O)c3ccccc32)cc1,inactive: -1.93%,
Cc1ccc(C(=O)N/N=C\c2ccc([N+](=O)[O-])o2)cn1,inactive: 30.8%,
COc1cccc(COC(=O)c2nn(-c3ccccc3)nc2N)c1,inactive: -9.96%,
CCCNCc1nnc(-c2ccccc2Cl)o1,inactive: -6.43%,
COc1ccc(CNS(=O)(=O)c2ccc(-n3cnnn3)c(C)c2)cc1,inactive: 10.1%,
S=C(NC1CCCCC1)N1CCN(C/C=C/c2ccccc2)CC1,inactive: -1.42%,
O/N=C/c1ccccc1Oc1ccc(Cl)cc1,,active: 17.8 µM
O=C(NNS(=O)(=O)c1ccc(Cl)cc1)c1cc(-c2ccccc2)n[nH]1,inactive: -3.87%,
N#C/C(=C\c1ccccc1)C(=O)Nc1nncs1,inactive: -22.4%,
O=C(CCCn1cnc([N+](=O)[O-])n1)Nc1cccc(O)c1,inactive: -23.1%,
O=C(O)c1ccccc1SCC(=O)N1CCOCC1,inactive: -3.58%,

SMILES,growth rescue (activation),Potency
COc1ccc(NC(=O)NCc2cccn2C)c(OC)c1,inactive: -8.47%,
CCc1nnc(NC(=O)CSc2nnc3nc(C)cc(C)n23)s1,inactive: -4.69%,
CCc1ccc(NC(=O)N2CC=C(c3c[nH]c4ccccc34)CC2)cc1,inactive: 17.5%,
Cc1ccc(C2(C)NC(=O)N(CC(=O)NCc3ccccc3Cl)C2=O)cc1 (configuration not stated),inactive: 8.59%,
CC(C)c1ccc(OCC(=O)N2CCN(c3ccccn3)CC2)c(Br)c1,inactive: -4.97%,
Cc1ccc(N(CCC#N)C(=O)CN2C(=O)NC(Cc3ccccc3)C2=O)cc1 (configuration not stated),inactive: 10.1%,
Fc1ccccc1Nc1nc2ccccc2o1,inactive: -10.9%,
Cc1cc(C)c2c(n1)nn1c(C)c(CCC(=O)Nc3ccc(C)c(Cl)c3)c(C)nc21,inactive: 5.71%,
CC1(Cc2cc(Cl)ccc2C(F)(F)F)C(=O)Nc2ccc(S(=O)(=O)NC3CCCCC3)cc21 (configuration not stated),inactive: -9.51%,
Cc1cccc(NC(=O)CCNS(=O)(=O)c2cccc3nonc23)c1C,inactive: -4.53%,
Cc1cc(-c2nc3ncccc3o2)ccc1NC(=O)c1ccc([N+](=O)[O-])o1,inactive: -6.36%,
COC(=O)c1cc(Br)ccc1NC(=O)CCNC(=O)c1ccco1,inactive: 10%,
COc1ccc(N(C)C(=O)Nc2ccc3nsnc3c2)cc1,inactive: 26.6%,
Cc1cc(N2CCN(C)CC2)nc2ccc(NC(=O)CCC(=O)N3CCN(c4ccc([N+](=O)[O-])cc4)CC3)cc12,inactive: 10.9%,
O=C(O)c1cccc(S(=O)(=O)Nc2ccc(N3CCCCC3)cc2)c1,inactive: 22.2%,
COCCNc1nnc(Cc2ccccc2)c(=O)[nH]1,inactive: -0.0189%,
COc1ccc(OCCOC(=O)c2[nH]c(C)c(C(C)=O)c2C)cc1,inactive: 6.41%,
O=C(CCNC(=O)c1ccccc1)NC1CCCc2ccccc21 (configuration not stated),inactive: 23.4%,
CCN(CC)c1ccc(C(=O)OCC(=O)N2CCN(c3ccccc3)CC2)cc1,inactive: 14.8%,
